One test has as its target T1, Recombinant human TREM2 (human, UniProt Q9NZC2 19-174).
T1 sequence (looked up): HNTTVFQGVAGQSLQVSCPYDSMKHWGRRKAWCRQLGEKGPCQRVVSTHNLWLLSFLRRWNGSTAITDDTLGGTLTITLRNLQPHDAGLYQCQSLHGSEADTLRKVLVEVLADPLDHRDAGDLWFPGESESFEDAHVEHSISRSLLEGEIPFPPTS
The test can be described thus: cell-based or functional assay.

In test [1] the target is Murine TREM2 fused to CD8 transmembrane and CD3ζ intracellular signaling domains, on BWZ-mTREM2 reporter cells (mouse | ). The test can be described thus: cell-based or functional assay.

B1: Recombinant human ApoE ε2 (ligand)
chain: not shown
B1: the “EC50 of NFAT/lacZ β-galactosidase reporter signal in BWZ-hTREM2 cells, wells coated with ApoE (3-300 nM)” value with Recombinant human TREM2 is 27 nM. Besides, in test [1], the “EC50 of NFAT/lacZ β-galactosidase reporter signal in BWZ-mTREM2 cells, wells coated with ApoE (3-300 nM)” value was 40 nM.

These data come from publication PMC5360024, “The Alzheimer’s disease risk factors apolipoprotein E and TREM2 are linked in a receptor signaling pathway” (Journal of Neuroinflammation, 2017).
